{"source": "the supplement of paper PMC10338343", "note": "± gives the standard deviation. Only a part is listed here, and it is no random draw.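 Also: 1 nM active piRISC with 0.1 nM target library at 33 °C single turnover.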"}
{"test_system": "MIWI (PIWIL1) piRISC loaded with piRNA #1 (30 nt)", "assay": "pre-steady-state target cleavage rate (min^-1); MIWI and MILI are mouse PIWI proteins and EfPiwi is from a freshwater sponge; tags in brackets are library labels; higher = faster piRNA-guided slicing of the target", "conditions": "guide: piRNA #1 5'p-UGAGGUAGUAGGUUGUAUAGUAUCCAGAGG; auxiliary factor: 500 nM mouse GTSF1", "method_in_brief": "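In HEPES–potassium acetate buffer at 33 °C, […] transcribed, DNA-blocked target RNA library was mixed with 1 nM active affinity-purified piRISC carrying one synthetic guide, with or without 500 nM GTSF1 partner protein, for 0–8 or 0–960 min. Uncleaved targets were sequenced and normalised to depth and to weakly complementary targets; three trials were pooled and k3 was capped at 0.0001 min^-1. The pre-steady-state cleavage rate followed from a burst-and-steady-state fit.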"}
{"sequence": "GGAGAGGAAACUAAACAACCUACUACCUCA", "pre-steady-state target cleavage rate": "1.24 ± 0.1"}
{"sequence": "GCUGCUGGAUACUAUACAACCUACUACCUCA", "pre-steady-state target cleavage rate": "2.01 ± 0.14"}
{"sequence": "GGAGACGUUACUAUACAACCUACUACCUGA", "pre-steady-state target cleavage rate": "0.573 ± 0.07"}
{"sequence": "GCUCUGGAUACUAUACAUCGUACUACCUCA", "pre-steady-state target cleavage rate": "0.579 ± 0.047"}
{"sequence": "GCUCUGGAUACUAUACAAGCUACUUCCUCA", "pre-steady-state target cleavage rate": "0.651 ± 0.043"}
{"sequence": "GGAGACCAUACUAUACAUGCUACUACCUCA", "pre-steady-state target cleavage rate": "0.427 ± 0.037"}
{"sequence": "GGAGAGGAUACUUUACAACGUACUACCUCA", "pre-steady-state target cleavage rate": "0.182 ± 0.023"}
{"sequence": "GCUCUGGAUUACUAUACAACCUACUACCUCA", "pre-steady-state target cleavage rate": "1.75 ± 0.11"}
{"sequence": "CCUCUGGAUACUAUACAUCCUACAACCUCA", "pre-steady-state target cleavage rate": "1.35 ± 0.11"}
{"sequence": "GGAGAGGAUACUUACAACCUACUACCUCA", "pre-steady-state target cleavage rate": "0.905 ± 0.064"}
{"sequence": "GCUCUGGAUACUAUACAUCCUAGUACCUCA", "pre-steady-state target cleavage rate": "0.466 ± 0.054"}
{"sequence": "GGUCUGGAUACUAUACAUCCUACUACCUCA", "pre-steady-state target cleavage rate": "1.57 ± 0.079"}
{"sequence": "GGAGAGCAUACUAUACAACCAACUACCUCA", "pre-steady-state target cleavage rate": "0.115 ± 0.011"}
{"sequence": "GGAGACCAUACUAUACAACCUUCUACCACA", "pre-steady-state target cleavage rate": "0.521 ± 0.03"}
{"sequence": "GGAGACCUUACUAAACUACCUACUACCUCA", "pre-steady-state target cleavage rate": "0.0421 ± 0.0095"}
{"sequence": "GGAGACGAAUACUAUACAACCUACUACCUCA", "pre-steady-state target cleavage rate": "1.76 ± 0.097"}
{"sequence": "CCUGUGGAUACUAUACAUCCUACUACCUCA", "pre-steady-state target cleavage rate": "1.84 ± 0.11"}
{"sequence": "GGAGAGGAUACUAUAGCAACCUACUACCUCA", "pre-steady-state target cleavage rate": "0.61 ± 0.07"}
{"sequence": "GGAGACGAUUCUAUACAACCUACUUCCUCA", "pre-steady-state target cleavage rate": "0.413 ± 0.038"}
{"sequence": "GGAGAGGAUACAAUACAACCUAGUACCUCA", "pre-steady-state target cleavage rate": "0.261 ± 0.039"}
{"sequence": "GGACUGGAUACUAUACAUCCUACUACCUCA", "pre-steady-state target cleavage rate": "1.53 ± 0.096"}
{"sequence": "GGAGACGAAUCUAUACAACCUACUACCUCA", "pre-steady-state target cleavage rate": "1 ± 0.075"}
{"sequence": "GGACUGGAUACUAUACAACCAUGUACCUCA", "pre-steady-state target cleavage rate": "0.00488 ± 0.0037"}
{"sequence": "GCUCUGGUUUCUAUACAACCUACUACCUCA", "pre-steady-state target cleavage rate": "2 ± 0.12"}
